# Assay results published in PubChem BioAssay AID504706 (National Center for Advancing Translational Sciences (NCATS), 2011).
# The campaign covered roughly 320,000 compounds. About 200 (0.062%) were called active. Inconclusive means that the source gave no clear call. Such entries were picked first, then a sample of the others. The call rests on the fitted dose curve; in most records, active means well fitted activation curve with a large enough effect; inconclusive means small, poorly fitted or top-dose-only effect; inactive means no such curve, though single readings can be large or run the other way. Potencies of inconclusive entries are left out as doubtful fits.
# Assay: qHTS assay for re-activators of p53 using a Luc reporter; further: nearly all actives have a fitted effect of over 45% in size
# Settings: H1299 p53-A138V BP100-luciferase reporter, luminescence, 24 h; series mostly up to 92.2 µM
# Procedure, shortened: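 p53-null H1299 cells stably carrying temperature-sensitive p53-A138V and a BP100-luciferase reporter were pinned with compounds (4-point, 1:5 series) and held 24 hrs at 37 deg C. Luminescence was read 10 min after detection reagent.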
# Potency means the concentration at half of the fitted maximal effect; tags describe the fitted curve by direction and shape.
row,SMILES,Potency
1,CCCCCOC(=O)c1cc(=O)[nH]c2ccccc12,"inconclusive [activator, single point]"
2,CC(C(=O)Nc1ccccc1)c1ccc(-c2ccccc2)c(F)c1 (stereo not drawn),inactive
3,O=C(N/N=C/c1ccc([N+](=O)[O-])o1)c1cc2c(ccc3ccccc32)o1,inactive
4,Cc1ccc(C)c(-c2nnc(NC(=O)c3ccc([N+](=O)[O-])o3)o2)c1,"inconclusive [activator, partial curve, poor fit]"
5,O=C(Cc1ccccc1)NC(=S)Nc1ccc2oc(-c3ccccc3F)nc2c1,"inconclusive [activator, partial curve, poor fit]"
6,CS(=O)(=O)Nc1nc2n(n1)C(c1ccccc1)C=C(c1ccc(Br)cc1)N2 (stereo not drawn),inactive
7,CCCCCC(=O)N/N=C(\C)c1ccccn1,inactive
8,O=C(/C=C/c1cccc(O)c1)c1cccnc1,inactive
9,COc1cccc(/C=N/n2cnc3ccccc32)c1OC,"inconclusive [activator, full curve, poor fit]"
10,O=C(c1ccc2nc(Cc3ccccc3F)oc2c1)N1CCCC1,"inconclusive [activator, partial curve, poor fit]"
11,O=c1oc2ccccc2nc1/C=C(\O)c1ccccc1,"inconclusive [activator, full curve]"
12,Cc1noc(C)c1S(=O)(=O)N(C)C[C@H]1Oc2c(NC(=O)C3CCCCC3)cccc2C(=O)N([C@H](C)CO)C[C@@H]1C,inactive
13,O=c1sc2ccccc2n1COc1ccccc1,inactive
14,COc1cc(Nc2nc3ccccc3n3nnnc23)cc(OC)c1OC,"inconclusive [activator, partial curve, poor fit]"
15,CN(C(=O)COC(=O)/C=C/c1ccc(C(F)(F)F)cc1)c1c(N)n(Cc2ccccc2)c(=O)[nH]c1=O,inactive
16,O=C(CCCOc1ccc(Cl)cc1Cl)Nc1ccncc1,inactive
17,O=C(O)c1ccc(OS(=O)(=O)c2ccc(Cl)s2)cc1,inactive
18,CCN1CCN(c2ccc(NC(=O)c3ccc4c(c3)OCO4)cc2)CC1,"inconclusive [activator, partial curve, poor fit]"
19,c1cnc(N2CCN(c3ncnc4c3oc3ccccc34)CC2)nc1,inactive
20,CC(C)(C)c1ccc(C(=O)NCCc2ccccc2)cc1,"inconclusive [activator, partial curve, poor fit]"
21,CC(C)C1COC(c2cccc3ccccc23)=N1 (stereo not drawn),"inconclusive [activator, partial curve]"
22,Cc1cccc(NC(=O)COc2ccccc2C)n1,"inconclusive [activator, partial curve, poor fit]"
23,Cc1ccc(NC(=O)CSc2nnc(NC(=O)c3ccc(S(=O)(=O)N4CCOCC4)cc3)s2)cc1,"inconclusive [activator, single point]"
24,Cc1nn(-c2ccccc2)c(Cl)c1C(=O)NNC(=O)c1ccccc1O,"inconclusive [activator, full curve, poor fit]"

row,SMILES,Potency
1,OCCCNc1ncnc2scc(-c3ccc(Cl)cc3)c12,inactive
2,COc1ccc(Oc2coc3cc(O)ccc3c2=O)cc1,inactive
3,CCOC(=O)c1cnc(NCc2ccccc2)nc1C,"inconclusive [activator, partial curve, poor fit]"
4,CCCCC(=O)Nc1ncc(Br)s1,"inconclusive [activator, partial curve, poor fit]"
5,O=C(NC1CCCC1)C1CCN(C(=O)c2ccccc2Cl)CC1,"inconclusive [activator, single point]"
6,COc1ccccc1-c1ccc(C(=O)O)o1,"inconclusive [activator, partial curve]"
7,COC(=O)c1sccc1NC(=O)/C=C/c1ccc(Cl)cc1,"inconclusive [activator, partial curve, poor fit]"
8,CCOC(=O)c1ccccc1NC(=O)COC(=O)c1cc([N+](=O)[O-])ccc1N1CCOCC1,inactive
9,CCc1[nH]nc2c1C(C(C)C)C(C#N)=C(N)O2 (stereo not drawn),"inconclusive [activator, single point]"
10,CCOc1ccc(Br)cc1S(=O)(=O)Nc1ccc(C(=O)Nc2ccccc2OC)cc1,"inconclusive [activator, single point]"
11,CCCCNc1c(-c2ccc(-c3cccc(Cl)c3)cc2)nc2ccc(Cl)cn12,"inconclusive [activator, full curve, poor fit]"
12,Cc1cc(-n2c(C)cc(C(=O)COc3ccc4ccc(=O)oc4c3)c2C)no1,inactive
13,CCOC(=O)N1CCN(C(=O)c2cc3c(s2)-c2ccccc2OC3)CC1,inactive
14,Cc1ccc2nc(CSc3nc(C)cc(C)c3C#N)[nH]c2c1,"inconclusive [activator, partial curve, poor fit]"
15,CCC(=O)NCC(=O)OCC(=O)c1ccccc1,inactive
16,CC1CCN(C(=O)CN(C2CCCCC2)S(C)(=O)=O)CC1,"inconclusive [activator, full curve, poor fit]"
17,CCC(=O)NC1=C(C#N)C2(CCCC2)Cc2ccccc21,inactive
18,CCn1nc(NS(=O)(=O)c2ccc(F)cc2)c2cc3cccc(C)c3nc21,inactive
19,COc1ccc(/C=N/Nc2ncccc2[N+](=O)[O-])c(OC)c1,"inconclusive [activator, partial curve, poor fit]"
20,CCn1nc(C)c(/C=N/NC(=O)Cn2nccc2C)c1C,"inconclusive [activator, partial curve, poor fit]"
21,C/C(CC(=O)Nc1ccc(Cl)c(C(F)(F)F)c1)=N\NC(=O)c1cccc(O)c1,"inconclusive [activator, partial curve, poor fit]"
22,O=C(COC(=O)c1ccccc1NCCO)NCCc1ccccc1,inactive
23,COC(=O)c1c(NC(=O)/C=C/C(=O)O)sc(Cc2ccccc2)c1C,inactive
24,Cc1ccc(S(=O)(=O)c2ccc(Cl)cc2)cc1S(N)(=O)=O,"inconclusive [activator, single point]"
